Assay results reported in the antibiotic and cytotoxicity screens of Wong et al. (2023).
The list shows a part of the results.

Tests used:
HSkMC = human skeletal muscle cells; test: cytotoxicity call (relative viability < 0.9); conditions: 10 µM
HepG2 = test: cytotoxicity call (relative viability < 0.9); conditions: 10 µM
S. aureus RN4220 = test: growth inhibition call (relative growth <= 0.2); conditions: 50 µM

With `C[C@@H]1CN([C@H](C)CO)C(=O)Cc2cc(NC(=O)CCN3CCOCC3)ccc2O[C@H]1CN(C)CC1CC1` the cytotoxicity call (HSkMC) was “inactive”, the cytotoxicity call (HepG2) was “inactive” and the growth inhibition call (S. aureus RN4220) was “inactive”.

`COc1ccc(NC(=O)Nc2ccc3c(c2)C(=O)N([C@H](C)CO)C[C@@H](C)[C@H](CN(C)S(C)(=O)=O)O3)cc1` was tested, and the cytotoxicity call (HSkMC) was “inactive”, the cytotoxicity call (HepG2) was “active” and the growth inhibition call (S. aureus RN4220) was “inactive”.

`COc1ccc(CN(C)C[C@@H]2OCCCC[C@@H](C)Oc3ccc(NS(=O)(=O)c4ccccc4)cc3C(=O)N([C@@H](C)CO)C[C@@H]2C)cc1` was tested, and the cytotoxicity call (HSkMC) was “inactive”, the cytotoxicity call (HepG2) was “inactive” and the growth inhibition call (S. aureus RN4220) was “inactive”.

In the case of `CO[C@@H]1CN(C)C(=O)c2ccc(NS(C)(=O)=O)cc2OC[C@H](C)N(C(=O)C2CCCCC2)C[C@@H]1C`, the cytotoxicity call (HSkMC) is reported as “inactive”, the cytotoxicity call (HepG2) is reported as “inactive” and the growth inhibition call (S. aureus RN4220) is reported as “inactive”.

`C[C@@H]1CN([C@H](C)CO)C(=O)c2cc(NC(=O)CCCN(C)C)ccc2O[C@@H]1CN(C)Cc1ccccc1` was tested, and the cytotoxicity call (HSkMC) was “inactive”, the cytotoxicity call (HepG2) was “inactive” and the growth inhibition call (S. aureus RN4220) was “inactive”.

For `C[C@@H]1CN([C@H](C)CO)C(=O)c2cc(NC(=O)Nc3ccc(C(F)(F)F)cc3)ccc2O[C@@H](C)CCCCO[C@@H]1CN(C)C(=O)CCCN(C)C`, the cytotoxicity call (HSkMC) was “inactive”, the cytotoxicity call (HepG2) was “inactive” and the growth inhibition call (S. aureus RN4220) was “inactive”.

In the case of `CC(C)NC(=O)Nc1cccc2c1O[C@H](CN(C)C(=O)Nc1ccc3c(c1)OCO3)[C@@H](C)CN([C@H](C)CO)C2=O`, the cytotoxicity call (HSkMC) is reported as “inactive”, the cytotoxicity call (HepG2) is reported as “inactive” and the growth inhibition call (S. aureus RN4220) is reported as “inactive”.

In the case of `CN1C(=O)CS(=O)(=O)[C@@H]1c1ccccc1`, the cytotoxicity call (HSkMC) is reported as “inactive”, the cytotoxicity call (HepG2) is reported as “inactive” and the growth inhibition call (S. aureus RN4220) is reported as “inactive”.

In the case of `C[C@@H]1CN([C@H](C)CO)C(=O)c2cc(NC(=O)CCN3CCOCC3)ccc2O[C@H]1CN(C)C(=O)NC1CCCCC1`, the cytotoxicity call (HSkMC) is reported as “inactive”, the cytotoxicity call (HepG2) is reported as “inactive” and the growth inhibition call (S. aureus RN4220) is reported as “inactive”.

For `Cc1ccc(S(=O)(=O)N2C[C@H](O)COC[C@H]3O[C@@H](CC(=O)N4CCc5ccccc5C4)CC[C@@H]32)cc1`, the cytotoxicity call (HSkMC) was “inactive”, the cytotoxicity call (HepG2) was “inactive” and the growth inhibition call (S. aureus RN4220) was “inactive”.

With `C[C@@H]1CN([C@H](C)CO)C(=O)c2cc(NC(=O)C3CC3)ccc2O[C@@H]1CN(C)S(=O)(=O)c1ccc(F)cc1` the cytotoxicity call (HSkMC) was “inactive”, the cytotoxicity call (HepG2) was “inactive” and the growth inhibition call (S. aureus RN4220) was “inactive”.

With `C[C@H](CO)N1C[C@H](C)[C@@H](CN(C)S(=O)(=O)c2ccc(F)cc2)Oc2c(NS(=O)(=O)c3cccs3)cccc2C1=O` the cytotoxicity call (HSkMC) was “inactive”, the cytotoxicity call (HepG2) was “inactive” and the growth inhibition call (S. aureus RN4220) was “inactive”.

In the case of `O=C(CCc1ccc(O)cc1)c1c(O)cc(O)cc1O`, the cytotoxicity call (HSkMC) is reported as “inactive”, the cytotoxicity call (HepG2) is reported as “inactive” and the growth inhibition call (S. aureus RN4220) is reported as “inactive”.

For `C[C@@H]1CN([C@@H](C)CO)C(=O)c2c(c3ccccc3n2C)-c2ccccc2CO[C@H]1CN(C)Cc1ccc2c(c1)OCCN2C`, the cytotoxicity call (HSkMC) was “inactive”, the cytotoxicity call (HepG2) was “active” and the growth inhibition call (S. aureus RN4220) was “inactive”.

For `O=C(Nc1ccccc1C(=O)O)c1nnc[nH]1`, the cytotoxicity call (HSkMC) was “inactive”, the cytotoxicity call (HepG2) was “inactive” and the growth inhibition call (S. aureus RN4220) was “inactive”.

In the case of `CN(C)CCCCNC(=O)[C@@H]1C[C@@H]2C(=O)N[C@@H](CCCCN(C)C)C(=O)N2[C@@H]1c1cccc(OCCO)c1`, the cytotoxicity call (HSkMC) is reported as “inactive”, the cytotoxicity call (HepG2) is reported as “inactive” and the growth inhibition call (S. aureus RN4220) is reported as “inactive”.

`COCC(=O)Nc1ccc2c(c1)C(=O)N(C)C[C@H](OC)[C@H](C)CN(Cc1ccccc1OC)[C@@H](C)CO2` was tested, and the cytotoxicity call (HSkMC) was “inactive”, the cytotoxicity call (HepG2) was “inactive” and the growth inhibition call (S. aureus RN4220) was “inactive”.

For `CCCN(C)C[C@H]1OCCCC[C@H](C)Oc2ccc(NS(=O)(=O)c3ccc(Cl)cc3)cc2C(=O)N([C@@H](C)CO)C[C@H]1C`, the cytotoxicity call (HSkMC) was “inactive”, the cytotoxicity call (HepG2) was “inactive” and the growth inhibition call (S. aureus RN4220) was “inactive”.

`C[C@@H]1CCCCO[C@H](CN(C)Cc2ccccc2)[C@@H](C)CN([C@H](C)CO)C(=O)c2cc(NC(=O)NC3CCCCC3)ccc2O1` was tested, and the cytotoxicity call (HSkMC) was “inactive”, the cytotoxicity call (HepG2) was “inactive” and the growth inhibition call (S. aureus RN4220) was “inactive”.

With `COc1ccc(S(=O)(=O)Nc2ccc3c(c2)C(=O)N([C@@H](C)CO)C[C@H](C)[C@H](CN(C)C(=O)Nc2ccc(C(F)(F)F)cc2)OCCCC[C@H](C)O3)cc1` the cytotoxicity call (HSkMC) was “inactive”, the cytotoxicity call (HepG2) was “inactive” and the growth inhibition call (S. aureus RN4220) was “inactive”.

For `C[C@H](CO)N1C[C@H](C)[C@H](CN(C)S(C)(=O)=O)Oc2ccc(NC(=O)Nc3ccc(F)cc3)cc2CC1=O`, the cytotoxicity call (HSkMC) was “inactive”, the cytotoxicity call (HepG2) was “inactive” and the growth inhibition call (S. aureus RN4220) was “inactive”.

With `CC1(C)CO[C@@H](CC(=O)O)CN1` the cytotoxicity call (HSkMC) was “inactive”, the cytotoxicity call (HepG2) was “inactive” and the growth inhibition call (S. aureus RN4220) was “inactive”.

In the case of `CO[C@@H]1[C@@H](OC(=O)c2ccc(C)[nH]2)[C@@H](O)[C@@H](Oc2ccc3c(c2C)OC(=O)[C@H](NC(=O)c2[nH]cc(CC(=O)Nc4cc5ccc(O[C@@H]6OC(C)(C)[C@H](OC)[C@@H](OC(=O)c7ccc(C)[nH]7)[C@H]6O)c(C)c5oc4=O)c2C)C3)CC1(C)C`, the cytotoxicity call (HSkMC) is reported as “active”, the cytotoxicity call (HepG2) is reported as “inactive” and the growth inhibition call (S. aureus RN4220) is reported as “inactive”.

For `Cc1noc(C)c1NC(=O)N(C)C[C@@H]1OCCCC[C@@H](C)Oc2ccc(NC(=O)C3CCCCC3)cc2C(=O)N([C@@H](C)CO)C[C@@H]1C`, the cytotoxicity call (HSkMC) was “inactive”, the cytotoxicity call (HepG2) was “inactive” and the growth inhibition call (S. aureus RN4220) was “inactive”.

For `Cn1cc(N2C[C@]3(COCCN(C(=O)C4(C#N)CC4)C3)OCC2=O)cn1`, the cytotoxicity call (HSkMC) was “inactive”, the cytotoxicity call (HepG2) was “inactive” and the growth inhibition call (S. aureus RN4220) was “inactive”.

For `C[C@@H](NC(=O)C[C@H]1C=C[C@@H](NC(=O)CN2CCOCC2)[C@H](CO)O1)c1ccccc1`, the cytotoxicity call (HSkMC) was “inactive”, the cytotoxicity call (HepG2) was “inactive” and the growth inhibition call (S. aureus RN4220) was “inactive”.

With `C[C@@H]1CN([C@H](C)CO)C(=O)c2cc(NC(=O)c3ccncc3)ccc2O[C@@H](C)CCCCO[C@H]1CN(C)C(=O)Nc1ccc(F)cc1` the cytotoxicity call (HSkMC) was “inactive”, the cytotoxicity call (HepG2) was “inactive” and the growth inhibition call (S. aureus RN4220) was “inactive”.

For `COc1ccc(NC(=O)Nc2ccc3c(c2)C(=O)N([C@H](C)CO)C[C@H](C)[C@@H](CN(C)Cc2ccc(C(=O)O)cc2)OCCCC[C@H](C)O3)cc1`, the cytotoxicity call (HSkMC) was “inactive”, the cytotoxicity call (HepG2) was “inactive” and the growth inhibition call (S. aureus RN4220) was “inactive”.

With `C[C@@H]1CN([C@H](C)CO)C(=O)c2cccc(NC(=O)C3CC3)c2O[C@H]1CN(C)S(=O)(=O)c1ccc(Cl)cc1` the cytotoxicity call (HSkMC) was “inactive”, the cytotoxicity call (HepG2) was “inactive” and the growth inhibition call (S. aureus RN4220) was “inactive”.

`C[C@H](CO)N1C[C@H](C)[C@H](CN(C)Cc2ccc(-c3ccccc3)cc2)Oc2c(NS(=O)(=O)c3ccc(F)cc3)cccc2C1=O` was tested, and the cytotoxicity call (HSkMC) was “inactive”, the cytotoxicity call (HepG2) was “active” and the growth inhibition call (S. aureus RN4220) was “inactive”.

In the case of `C[C@H](CO)N1C[C@H](C)[C@H](CN(C)S(=O)(=O)c2cn(C)cn2)OCCCC[C@H](C)Oc2ccc(NS(=O)(=O)c3cn(C)cn3)cc2C1=O`, the cytotoxicity call (HSkMC) is reported as “inactive”, the cytotoxicity call (HepG2) is reported as “inactive” and the growth inhibition call (S. aureus RN4220) is reported as “inactive”.

With `CO[C@H]1CN(C)C(=O)c2cc(NS(=O)(=O)CC(F)(F)F)ccc2OC[C@H](C)N(C(=O)NC(C)C)C[C@H]1C` the cytotoxicity call (HSkMC) was “inactive”, the cytotoxicity call (HepG2) was “inactive” and the growth inhibition call (S. aureus RN4220) was “inactive”.

For `NC[C@@H]1O[C@H](O[C@H]2[C@@H](O)[C@H](O[C@@H]3[C@@H](O)[C@H](N)C[C@H](N)[C@H]3O[C@@H]3O[C@H](CO)[C@@H](O)C[C@H]3N)O[C@@H]2CO)[C@H](N)[C@@H](O)[C@@H]1O[C@H]1O[C@H](CO)[C@@H](O)[C@H](O)[C@@H]1O`, the cytotoxicity call (HSkMC) was “inactive”, the cytotoxicity call (HepG2) was “inactive” and the growth inhibition call (S. aureus RN4220) was “inactive”.

`C[C@H](CO)N1C[C@H](C)[C@@H](CN(C)C(=O)c2ccc3c(c2)OCO3)Oc2cc(-c3cncnc3)ccc2S1(=O)=O` was tested, and the cytotoxicity call (HSkMC) was “inactive”, the cytotoxicity call (HepG2) was “inactive” and the growth inhibition call (S. aureus RN4220) was “inactive”.

With `Cc1cc(C)c2c(c1)NC(=O)C[C@H]2c1cccc(Cl)c1Cl` the cytotoxicity call (HSkMC) was “inactive”, the cytotoxicity call (HepG2) was “active” and the growth inhibition call (S. aureus RN4220) was “inactive”.

With `C[C@H]1CN([C@@H](C)CO)C(=O)c2cc(N(C)C)ccc2O[C@@H]1CN(C)S(=O)(=O)c1ccc(Cl)cc1` the cytotoxicity call (HSkMC) was “inactive”, the cytotoxicity call (HepG2) was “inactive” and the growth inhibition call (S. aureus RN4220) was “inactive”.

With `C[C@H](CO)N1C[C@H](C)[C@H](CN(C)S(=O)(=O)c2cn(C)cn2)OCc2ccccc2-c2ccccc2C1=O` the cytotoxicity call (HSkMC) was “inactive”, the cytotoxicity call (HepG2) was “inactive” and the growth inhibition call (S. aureus RN4220) was “inactive”.

With `NNc1cccc(C(=O)O)c1` the cytotoxicity call (HSkMC) was “inactive”, the cytotoxicity call (HepG2) was “inactive” and the growth inhibition call (S. aureus RN4220) was “inactive”.

With `C[C@@H]1CN([C@H](C)CO)C(=O)Cc2cc(NC(=O)CCCCCC(=O)Nc3ccccc3N)ccc2O[C@H]1CN(C)Cc1ccc(-c2ccccc2)cc1` the cytotoxicity call (HSkMC) was “inactive”, the cytotoxicity call (HepG2) was “inactive” and the growth inhibition call (S. aureus RN4220) was “inactive”.

In the case of `C[C@H]1CN([C@@H](C)CO)C(=O)c2cc(NC(=O)Nc3ccc4c(c3)OCO4)ccc2O[C@@H]1CN(C)Cc1ccc(Cl)c(Cl)c1`, the cytotoxicity call (HSkMC) is reported as “inactive”, the cytotoxicity call (HepG2) is reported as “inactive” and the growth inhibition call (S. aureus RN4220) is reported as “inactive”.

For `Nc1nc(=O)c2nc(Br)n([C@H]3O[C@H]4COP(=O)(O)O[C@@H]4[C@@H]3O)c2[nH]1`, the cytotoxicity call (HSkMC) was “inactive”, the cytotoxicity call (HepG2) was “inactive” and the growth inhibition call (S. aureus RN4220) was “inactive”.
